Source: PubChem BioAssay AID624296 (National Center for Advancing Translational Sciences (NCATS), 2012)
Among all 350,000 compounds or so, about 9,900 (2.8%) were called active. Inconclusive results, whose numbers are uncertain, are shown with a selection of clear calls. Calls come from the whole dose curve; as a rule, active = well fitted activation curve with a large enough effect; inconclusive = small, poorly fitted or top-dose-only effect; inactive = no such curve, though single readings can be large or run the other way. Potencies of inconclusive entries are left out as doubtful fits.

Experiment: A quantitative high throughput screen for small molecules that induce DNA re-replication in MCF 10a normal breast cells. Note: nearly all actives have a fitted effect of over 50% in size.
Conditions: MCF 10A DNA re-replication, Hoechst nuclear intensity, 48 h; series mostly up to 46.1 µM
Potency is the fitted concentration of half-maximal effect; tags give direction and shape of the fitted curve.

Row | SMILES | Potency
1 | COc1ccc(CN2CC(C(=O)NCCCN3CCN(C)CC3)CC2=O)cc1 (stereo not drawn) | inconclusive [activator, full curve, poor fit]
2 | CC(=O)Cc1nsc(NC(=O)c2ccc(-c3ccc(Cl)c(Cl)c3)o2)n1 | inconclusive [activator, single point]
3 | O=C(O)c1cccnc1Nc1ccc(Cl)cc1 | inactive
4 | CCCCN(C(=O)c1cc2c(s1)CCCCC2)c1c(N)n(CC(C)C)c(=O)[nH]c1=O | inactive
5 | Cc1ccc(S(=O)(=O)NC(=O)NN2CCCCCC2)cc1 | inconclusive [activator, full curve, poor fit]
6 | CN1CCN(C(CNS(=O)(=O)c2ccc([N+](=O)[O-])cc2)c2ccc(F)cc2)CC1 (stereo not drawn) | inactive
7 | COc1ccccc1C1/C(=C(/O)c2ccc(OC(C)C)cc2)C(=O)C(=O)N1c1cc(C)on1 (stereo not drawn) | inconclusive [activator, single point]
8 | CCOC(=O)C1=C(N)OC2=C(C(=O)CCC2)C1c1ccc2c(c1)OCO2 (stereo not drawn) | inactive
9 | CSc1ncccc1C(=O)OCC(=O)NCc1ccccc1 | inconclusive [activator, single point]
10 | COc1ccc(Nc2c(-c3ccc(C)cc3)nc3cnccn23)cc1 | inconclusive [activator, single point]
11 | O=C(O)c1nn(Cc2nc3ccccc3o2)c(=O)c2ccccc12 | inactive
12 | O=C(NC(=S)Nc1ccccc1Cl)c1csnn1 | inconclusive [activator, single point]
13 | CSc1ccc(Cl)c(C(=O)OCC(=O)N2CCN(c3ccccc3)CC2)c1 | inactive
14 | COC(=O)[C@]1(C)N[C@H](CN(C)S(=O)(=O)c2ccc(OC(F)(F)F)cc2)[C@@H]2C(=O)N(C)C(=O)[C@@H]21 | inconclusive [activator, full curve, poor fit]
15 | CN(C(=O)CN(C)S(=O)(=O)c1ccc(F)cc1)c1c(N)n(Cc2ccccc2)c(=O)[nH]c1=O | inactive
16 | CCC1=NN(C(=O)c2ccc(Br)cc2)C(O)(c2ccc(C)cc2)C1 (stereo not drawn) | inactive
17 | CC(/C=C/c1ccccc1)NC(N)=O (stereo not drawn) | inconclusive [activator, full curve, poor fit]
18 | CCOC(=O)c1cnc(SCc2ccc(C)cc2)nc1N | inconclusive [activator, single point]
19 | COc1cccc(CN2c3ccc(Br)cc3C(=O)CS2(=O)=O)c1 | inconclusive [activator, single point]
20 | CCN(CCS(=O)(=O)c1ccc(Cl)cc1)C(=O)Nc1ccc(Cl)cc1 | inactive
21 | CCN1CCN(c2nc(Nc3cccc(C)c3)nc(N)c2[N+](=O)[O-])CC1 | inactive
22 | O=C1CCc2cc(S(=O)(=O)N3CCCCC3)cc3c2N1CCC3 | inactive
23 | CC(=O)NCCc1c(C)n(Cc2ccccc2)c2ccccc12 | inconclusive [activator, partial curve, poor fit]

Row | SMILES | Potency
24 | O=S(=O)(c1cccc(Br)c1)N1CCN(CCc2ccccc2)CC1 | inconclusive [activator, partial curve]
25 | Cc1c(C(=O)Nc2ccc(S(=O)(=O)N(C)C3CCN(C)CC3)cc2)oc2ccccc12 | inconclusive [activator, single point]
26 | COc1ccc(C=O)cc1Cn1ccnc1C | inconclusive [activator, single point]
27 | COc1ccc(-c2c(-c3ccc(O)cc3O)n[nH]c2C(F)(F)F)cc1 | inconclusive [activator, single point]
28 | C=CCn1c(=NC(=O)c2ccco2)sc2cc(C(=O)OCC)ccc21 | inconclusive [activator, single point]
29 | CCOc1ccccc1CN1CCNC(=O)C1CC(=O)N(C)Cc1cnccn1 (stereo not drawn) | inconclusive [activator, partial curve, poor fit]
30 | CCC(=O)c1cn(CC(=O)NCc2cccnc2)c2ccccc12 | inconclusive [activator, single point]
31 | O=C(c1ccc(Cl)c(Cl)c1)c1cc(-c2ccccn2)c(N2CCOCC2)s1 | active: 20.6 µM
32 | CC(C)(C)N1C(=O)[C@H]2[C@@H](c3ccc(Br)cc3)N3C(=O)N(c4cccc(F)c4)C(=O)[C@@]3(Cc3ccccc3)[C@H]2C1=O | inconclusive [activator, single point]
33 | Cc1cc(NC(=S)N(Cc2ccc(Cl)cc2)Cc2ccc(C(=O)O)cc2)ccc1Cl | inconclusive [activator, single point]
34 | Cc1c(/C=C/C(=O)c2ccc(C(C)C)cc2)cnn1C | inconclusive [activator, partial curve, poor fit]
35 | Cc1ccc(NC(=O)c2ccc(Nc3c([N+](=O)[O-])cc([N+](=O)[O-])cc3[N+](=O)[O-])cc2)cc1 | inconclusive [activator, partial curve, poor fit]
36 | O=C1CCCc2c1[nH]c1ccccc21 | inactive
37 | NS(=O)(=O)c1ccc(CCNC(=O)c2cccc3ccccc23)cc1 | inconclusive [activator, single point]
38 | Cn1c(=O)c2c(ncn2CC(=O)N2CCN(c3ccccc3)CC2)n(C)c1=O | inactive
39 | CN(C)c1ccc(/C=N/N=C2/NC(=O)/C(=C/c3ccc([N+](=O)[O-])cc3)S2)cc1 | inconclusive [activator, partial curve, poor fit]
40 | Cc1ccc(NC(=O)CNCCCN2CCOCC2)cc1S(=O)(=O)N1CCCCC1 | inactive
41 | Cc1cc(C)cc(NC(=O)CCn2c(=O)c3cccn3c3ccccc32)c1 | active: 8.2 µM
42 | O=C(NCCOc1ccccc1Cl)c1cc(F)c(F)cc1Cl | inconclusive [activator, partial curve, poor fit]
43 | Cc1cccc(C2c3c(n(C)c(=O)n(C)c3=O)N=C3c4ccccc4C(=O)C32)c1 (stereo not drawn) | inconclusive [activator, single point]
44 | COc1cccc(C2CC(c3c(-c4ccccc4)c4cc(Cl)ccc4[nH]c3=O)=NN2S(C)(=O)=O)c1OC (stereo not drawn) | inconclusive [activator, single point]
45 | CN1C(=O)C(O)(CC(=O)/C=C/c2ccco2)c2ccccc21 (stereo not drawn) | inconclusive [activator, partial curve, poor fit]
46 | CC1(C)Cc2nc3sc4c(SCC(=O)NCc5ccco5)ncnc4c3cc2CO1 | active: 3.26 µM

Row | SMILES | Potency
47 | CCCCN(C(=O)CSc1n[nH]c(-c2ccc(C)cc2)n1)c1c(N)n(CCCC)c(=O)[nH]c1=O | inactive
48 | CCCCC(c1nnnn1CC1CCCO1)N1CCN(Cc2ccccc2)CC1 (stereo not drawn) | inactive
49 | O=C(CN1CCN(S(=O)(=O)N2CCCCCC2)CC1)Nc1ccc(F)cc1 | inactive
50 | O=S(=O)(c1ccc(Br)cc1)N1CCCN(Cc2ccccc2F)CC1 | inconclusive [activator, single point]
51 | COc1ccc2c(c1)sc1nc(-c3ccccc3)cn12 | inconclusive [activator, full curve, poor fit]
52 | Cc1ccc(OCCN2CCCC2)cc1 | inconclusive [activator, partial curve, poor fit]
53 | Cc1ccccc1OCc1nc2ccccc2c(=O)n1/N=C/c1cn[nH]c1-c1ccc(Br)cc1 | inconclusive [activator, single point]
54 | Cc1cccc(NC(=O)c2cc(-c3ccccn3)nc3ccccc23)c1C | inconclusive [activator, single point]
55 | Cc1cc(C)cc(N(C(C)C(=O)N2CCCC2)S(C)(=O)=O)c1 (stereo not drawn) | inconclusive [activator, partial curve, poor fit]
56 | COC(=O)C(Cc1csc2ccc(Cl)cc12)NC(=O)c1ccc(Cl)cc1 (stereo not drawn) | inconclusive [activator, partial curve, poor fit]
57 | CC(C)OCCCNC(=S)Nc1ccc(S(N)(=O)=O)cc1 | inactive
58 | Cc1ccc(C(=O)N2CCCN(c3nc4cc5c(cc4cc3C#N)OCO5)CC2)cc1 | active: 8.2 µM
59 | Cc1cc(C)c2c(CC(=O)NN(C)C)coc2c1 | inconclusive [activator, single point]
60 | C=C1C[C@H](O)[C@@H]2[C@H](OC(=O)[C@H]2C)[C@H]2[C@H](C)[C@@H](O)C[C@@H]12 | inactive
61 | CC(=O)c1c(C)[nH]c(C(=O)CN2C(=O)NC(CCc3ccccc3)C2=O)c1C (stereo not drawn) | inactive
62 | Cc1cc2c(c(C)c1Br)C(c1ccc3c(c1)OCO3)CC(=O)O2 (stereo not drawn) | inconclusive [activator, single point]
63 | O=C(Nc1cccc(Cl)c1)N1CCCC1 | inconclusive [activator, single point]
64 | CCc1nnc(NC(=O)c2ccc(OCc3c(C)noc3C)c(OC)c2)s1 | inconclusive [activator, single point]
65 | Cc1cc(CN2CCN(CC(=O)Nc3cc(C(F)(F)F)ccc3-n3cncn3)CC2)no1 | inactive
66 | Cc1ccnc(NC(c2ccsc2)c2ccc3ccc(C)nc3c2O)c1 (stereo not drawn) | inconclusive [activator, single point]
67 | COc1ccc(CC2=CC(=O)c3ccccc3C2=O)cc1 | inconclusive [activator, single point]
68 | C=CCN1C(=O)/C(=C/C(=O)OC)S/C1=N\NC(=O)c1ccccc1 | inconclusive [activator, single point]
